The campaign covered roughly 150,000 compounds. About 540 (0.36%) showed an effect of 50% or more. This is one part of the list.

The test relates to Plasmodium falciparum. Briefly: Primary screen in NF54 nanoGlo assay, in single point, at 2uM, 72h; a lower Z score goes with more inhibition. The note with it: timepoint 72 hour. It is filed as functional, Erythrocyte.
The term % Inhibition denotes the relative decrease from the control value, in per cent. Turning to `Cc1c(NC(=O)c2coc(CN)c2)cccc1N1CCOC1=O`, the “% Inhibition” value was -7% and the Z score is on record as 0.97.

For `O=C1CCC(=O)N1CN(CN1C(=O)CCC1=O)C1CCCCC1`, the “% Inhibition” value is -5% and the Z score was found to be 0.62.

Turning to `C[C@](O)(CNC(=O)N1CCNC1=O)c1cc2ccccc2s1`, the “% Inhibition” value was -12% and the Z score amounted to 1.55.

Turning to `CC(C)Cc1noc(CN(C)C(=O)c2ccc[nH]2)n1`, the “% Inhibition” value is recorded as -21% and the Z score is listed as 2.06.

For `O=C1CCCc2[nH]c(=O)c(C(=O)NCc3ccc4c(c3)OCO4)cc21`, the “% Inhibition” value is on record as -8% and the Z score stood at 1.26.

As for `CC1(C)C(Nc2ccncc2Cl)C2CCOC21` (centres undefined), the “% Inhibition” value is reported as -12% and the Z score was 1.86.

Consider `Cc1cc(NC(=O)CCc2ccco2)n(C)n1`, for which the “% Inhibition” value is given as -9% and the Z score was 1.12.

As for `OCC(CNc1cnccn1)C1CCOC1` (centres undefined), the “% Inhibition” value is 3% and the Z score is given as -0.32.

For `O=C(Cc1ccccc1F)N[C@@H]1CN(c2ccncn2)C[C@H]1CO`, the “% Inhibition” value is -5% and the Z score is on record as 0.78.

In the case of `COC(C(=O)N1C[C@@H](O)C[C@H]1CO)c1ccccc1C(F)(F)F` (some centres undefined), the “% Inhibition” value worked out at 2% and the Z score was -0.22.

For the compound `CCN(CC(=O)Nc1ccc2c(c1)OCCO2)C(=O)Cc1ccccc1F`, the “% Inhibition” value is -9% and the Z score worked out at 1.61.

Consider `Cc1occc1C(=O)Nc1ccc(N2CCOCC2)cc1`, for which the “% Inhibition” value was 33% and the Z score is reported as -3.76.

Consider `Cc1nc2ncnn2c(N2CCC3(CCCCCC3)C2)c1C`, for which the “% Inhibition” value is 3% and the Z score is on record as -0.34.

Consider `CC(C)[C@H]1C(=O)N(C)CCN1C(=O)c1cccc(OCCc2ccccc2)c1`, for which the “% Inhibition” value is -3% and the Z score was 0.35.

Regarding `O=C(c1cc(-c2ccccc2)on1)N1CCCCC[C@H]1c1cccc(F)c1`, the “% Inhibition” value worked out at 3% and the Z score was -0.39.

For the compound `O=C(Cc1ccccn1)NC[C@H]1CCN(C2Cc3ccccc3C2)C1`, the “% Inhibition” value is -10% and the Z score is given as 1.4.

In the case of `CCC1(CC)C[C@@H]1C(=O)N1CCC(n2cc(C3CCCCC3)nn2)CC1`, the “% Inhibition” value was -10% and the Z score is 1.89.

For `C=CCN1CC[C@H](Oc2ccc(C#N)cc2OC)C1=O`, the “% Inhibition” value is -14% and the Z score worked out at 1.23.

Regarding `C[C@@H](c1ccccc1F)N1CCN(C(=O)CCn2cncn2)CC1`, the “% Inhibition” value was -16% and the Z score was 1.68.

For `COc1ccc(CCOC(=O)Nc2ccccc2)cc1OC`, the “% Inhibition” value is listed as 6% and the Z score is -0.69.

On to `COc1ccc2cc(S(=O)(=O)NC3CC(C)(C)NC(C)(C)C3)ccc2c1`, for which the “% Inhibition” value was -8% and the Z score worked out at 1.59.

`CCc1ccccc1OC1CN(C(=O)CCn2ccc(C)n2)C1`: the “% Inhibition” value is on record as -17% and the Z score was determined as 2.31.

For the compound `COC(=O)C[C@H](c1c(O)ccc2nsnc12)C1CCCCC1`, the “% Inhibition” value was determined as 3% and the Z score is listed as -0.4.

`CN1CCN(c2cc(N3CCN(C(=O)Cc4ccc(F)cc4)CC3)ncn2)CC1`: the “% Inhibition” value is on record as -4% and the Z score was 0.59.

In the case of `Cc1ccc(C(=O)N2CCC[C@H]2c2nc(CCOCC3CCOCC3)no2)s1`, the “% Inhibition” value is -5% and the Z score is listed as 0.71.

In the case of `CC1CCN(C(=O)c2cc(C3CC3)on2)C(c2ccco2)C1` (centres undefined), the “% Inhibition” value is -2% and the Z score is on record as 0.34.

Take `Cc1occc1C(=O)N[C@@H](C)c1cnn(C)c1C`: the “% Inhibition” value was 7% and the Z score was -0.91.

On to `CCO[C@H]1COC[C@@H]1NC(=O)COc1ccc(Cl)cc1Cl`, for which the “% Inhibition” value is reported as 2% and the Z score is listed as -0.24.

In the case of `CCC(=O)N1CCC[C@@](NC2CCCCC2)(c2nnnn2C2CCCC2)C1`, the “% Inhibition” value is -9% and the Z score is reported as 1.18.

Turning to `Cc1ccc(C(=O)Nc2ccc(NCc3ccccn3)cc2)c(O)c1`, the “% Inhibition” value is -9% and the Z score is listed as 1.4.

Turning to `Cc1cc(C)c2c(c1)C1(NC(Cc3c[nH]c4ccccc34)[C@H]3C(=O)N(c4ccccc4)C(=O)[C@H]31)C(=O)N2` (some centres undefined), the “% Inhibition” value worked out at 28% and the Z score was -3.14.

Regarding `Cn1cnnc1C1CCN(Cc2cc(-c3ccccc3)ccc2OCC(=O)O)CC1`, the “% Inhibition” value worked out at 5% and the Z score was -0.57.

For `CC(C)c1nc([C@H]2CN(C(=O)Cc3cccnc3)CC23CCOCC3)no1`, the “% Inhibition” value is reported as -7% and the Z score was determined as 0.97.

As for `CC[C@@](C)(C(=O)NC1CCCC1)N(Cc1ccco1)C(=O)c1ccc2c(c1)OCO2`, the “% Inhibition” value amounted to 40% and the Z score is given as -5.15.

For the compound `Cc1ccc(NC(=O)NCCC2CCN(S(=O)(=O)c3ccccc3)CC2)cc1C`, the “% Inhibition” value is recorded as 4% and the Z score was -0.59.

For `Cc1cc(S(=O)(=O)[C@H]2CS(=O)(=O)C[C@@H]2NC2CCCCCC2)ccc1F`, the “% Inhibition” value is given as -12% and the Z score amounted to 1.58.

For `CCOC[C@H](C)OC(=O)c1cn(C)nc1C`, the “% Inhibition” value is given as -19% and the Z score was 2.74.

For the compound `CCCCCn1cc(C2CCN(S(=O)(=O)c3cccc(C(F)(F)F)c3)CC2)c2ccccc21`, the “% Inhibition” value is listed as 2% and the Z score is listed as -0.28.

Consider `Cc1cc(N2CC[C@H](OCCN3CCCCC3)C2)ncn1`, for which the “% Inhibition” value is -6% and the Z score is 0.8.

In the case of `O[C@H]1[C@H](n2cc(-c3cccc(F)c3)nn2)c2ccccc2C12CCNCC2`, the “% Inhibition” value turned out to be 3% and the Z score is recorded as -0.59.

For `CN1CCN(Cc2nnnn2C(C)(C)C)CCC1=O`, the “% Inhibition” value was -9% and the Z score turned out to be 0.74.

In the case of `C[C@]1(C(=O)N2CCCc3occc3C2)CCC(=O)NC1`, the “% Inhibition” value was -12% and the Z score turned out to be 1.58.

These data come from ChEMBL document CHEMBL4888484, “Replenishing the malaria drug discovery pipeline: Screening and hit evaluation of the MMV Hit Generation Library 1 (HGL1) against asexual blood stage Plasmodium falciparum ,using a nano luciferase reporter read-out” (2022).
